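96-well plates; 48 h exposure; 5 concentrations. Endpoints by linear interpolation between flanking doses. Not reached: highest tested concentration assigned. GI50 = concentration required for 50% inhibition of growth. TGI: total growth inhibition.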
Test system: NCI-H322M lung
Experiment: growth of human tumour cells (NCI), 48 h

O=C(Nc1ccc(Cl)c(C(F)(F)F)c1)Nc1ccc2c(ccn2C(=O)c2cccc(F)c2)c1
GI50: 3.26 µM
TGI: 21.7 µM

CCOP(=O)(OCC)OC[C@]12CCC(C)(C)C[C@H]1C1=CC[C@@H]3[C@@]4(C)C/C(=C\c5cccnc5)[C@H](OP(=O)(OCC)OCC)C(C)(C)[C@@H]4CC[C@@]3(C)[C@]1(C)CC2
GI50: 1.95 µM
TGI: 4.41 µM
